Sequences with one replicate were seen in a single cluster, so their values are uncertain.
System: ATP
Experiment: switch fluorescence ratio, 500 uM ATP over buffer (Cy3 cluster intensity, sum of 5 cycles each) (fold (ratio)); higher = stronger signal-on switching upon ATP binding; sequences stand for … in TCGTCGGCAGCGTCAGATGTGTATAAGAGACAGTTTTTTTTTTTTTTTTTTTTTTTTT…TC
Details: aptamer strand: ATP DNA aptamer (quencher-CACCTGGGGGAGTATTGCGGAGGAAGG + anchor), 100 nM annealed; ATP concentration: 500 uM; one replicate
Summary of the method: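 Exposure to 500 uM ATP lasted 15 min at 22 °C before imaging, and a selection-buffer image was taken beforehand, for Cy3-labelled switching-strand clusters on a modified Illumina MiSeq flow-cell annealed to 100 nM quencher-labelled ATP aptamer. Five buffer/ATP cycles were run with NaOH stripping and re-annealing between them. The fluorescence ratio per cluster is summed target-cycle over summed buffer-cycle Cy3 intensity, averaged per switch-domain sequence. Clusters outside 100-1000 RFU were excluded.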

TCAAGATGGG
switch fluorescence ratio: 0.983

TTGTCAAAGT
switch fluorescence ratio: 0.982

GCTGGCGAAT
switch fluorescence ratio: 1.04

TGTATGCCCC
switch fluorescence ratio: 1.04

TAGGTGCTCG
switch fluorescence ratio: 1.07

CGCCTATTGG
switch fluorescence ratio: 0.992

AAGCGACGAG
switch fluorescence ratio: 0.976

CGATCAGAGT
switch fluorescence ratio: 1.05

CCGTTGATGG
switch fluorescence ratio: 1.1

AACCGCTGAA
switch fluorescence ratio: 1.13

GCCATACGT
switch fluorescence ratio: 1.14

ATGGTTGACT
switch fluorescence ratio: 1.01

ACAGGGCACA
switch fluorescence ratio: 1.11

AGACCGTCCT
switch fluorescence ratio: 1.15

ACTATCGGTG
switch fluorescence ratio: 1.06

GATTCCCGG
switch fluorescence ratio: 0.98

TATAATCCAT
switch fluorescence ratio: 1

GGATACCTCC
switch fluorescence ratio: 1.07

CTTAGAAACC
switch fluorescence ratio: 1.05

CCGTTATGTA
switch fluorescence ratio: 1.05

CAGTGGATTC
switch fluorescence ratio: 1.02

ATAAGCTTGA
switch fluorescence ratio: 1.04

AGTTCGCCTT
switch fluorescence ratio: 1.14

TTCGCTTTTC
switch fluorescence ratio: 1.18

GGAAAATCCT
switch fluorescence ratio: 0.959

TCGCGATAAG
switch fluorescence ratio: 1.23

CAGGGAGTAA
switch fluorescence ratio: 1.26

GCATCATTAA
switch fluorescence ratio: 0.99

TCCTCATTT
switch fluorescence ratio: 0.991

TGTCGGTACC
switch fluorescence ratio: 0.984

TGGTCTAGAC
switch fluorescence ratio: 0.991

TTGAGTCAGA
switch fluorescence ratio: 1.01

AAAGTGTGCA
switch fluorescence ratio: 0.937

AAAGCGTCAA
switch fluorescence ratio: 1.08

TGGAAAGATA
switch fluorescence ratio: 1.06

TCCCTCCAAG
switch fluorescence ratio: 1.24

TCGCTATCTG
switch fluorescence ratio: 1.04

TTCATCGG
switch fluorescence ratio: 1.13

CAGTCTCAAT
switch fluorescence ratio: 1.02

TAAACGTTT
switch fluorescence ratio: 1.02

GACGTTGCGG
switch fluorescence ratio: 0.977

GGGCTCGACT
switch fluorescence ratio: 1.01

GCATGTGGTG
switch fluorescence ratio: 0.997

CCACCAACAA
switch fluorescence ratio: 1.82

AAAAGACCCC
switch fluorescence ratio: 1.14

TTGGGGCTCA
switch fluorescence ratio: 0.994

ACCCTAGTCT
switch fluorescence ratio: 1.04

GGCTTTGACA
switch fluorescence ratio: 0.945

ACCGGAG
switch fluorescence ratio: 1.11

GAGGCTCCGG
switch fluorescence ratio: 0.977

GATTACATAC
switch fluorescence ratio: 1.5

AGTTGCGCGG
switch fluorescence ratio: 0.968

CGCTAACAAT
switch fluorescence ratio: 1.05

CGGTGCGCGT
switch fluorescence ratio: 0.979

TAAGTCTATG
switch fluorescence ratio: 0.98

GTCCATTGTT
switch fluorescence ratio: 0.978

AAGTGTCTA
switch fluorescence ratio: 0.969

AGAAGAACGC
switch fluorescence ratio: 1.06

TCCGGTTGAA
switch fluorescence ratio: 0.954

TGTCACACGT
switch fluorescence ratio: 1

TGCTTTCCCA
switch fluorescence ratio: 0.988

CAGGGCTAGA
switch fluorescence ratio: 1.04

ATCCGTTTGC
switch fluorescence ratio: 1.44

TATCCCTGCG
switch fluorescence ratio: 1.03

ATGCGAAGCG
switch fluorescence ratio: 0.926

CTGGCACTAT
switch fluorescence ratio: 1.05

CTCCGGATCC
switch fluorescence ratio: 1.59

TCGAGTGATC
switch fluorescence ratio: 1.06

GACATAAGCC
switch fluorescence ratio: 0.981

CGTAGTCAGG
switch fluorescence ratio: 1.1

ACAATTAAC
switch fluorescence ratio: 1.06

CAAATAGTAT
switch fluorescence ratio: 0.997

AAAACAATGC
switch fluorescence ratio: 1.62

ACGACTATTG
switch fluorescence ratio: 1.07

AGCTTATTTA
switch fluorescence ratio: 0.994

AATTATTAAC
switch fluorescence ratio: 1

TGGTCGGAGC
switch fluorescence ratio: 1.01

TTTTCGACCA
switch fluorescence ratio: 1.15

TCGTTGAGTA
switch fluorescence ratio: 0.951

TGGCGTTCGT
switch fluorescence ratio: 0.972

AGGGTGTAAA
switch fluorescence ratio: 0.996

ATAAAGGCT
switch fluorescence ratio: 1.03

GACAGTTGTC
switch fluorescence ratio: 0.983

ATCTCACGGC
switch fluorescence ratio: 1.06

GCATCGACGG
switch fluorescence ratio: 1.04

GGTCGGTGCT
switch fluorescence ratio: 0.947

AGCCATCTAG
switch fluorescence ratio: 0.987

TCAGTCATAC
switch fluorescence ratio: 3.32

TATCCACGGC
switch fluorescence ratio: 1.06

ATTACCCAAC
switch fluorescence ratio: 1.2

AACGAGTTAT
switch fluorescence ratio: 1.01

CGCGCCTTGC
switch fluorescence ratio: 1.15

CGTACGGAC
switch fluorescence ratio: 1.7

AATCCGTGAT
switch fluorescence ratio: 1.16

ATATAAAAGG
switch fluorescence ratio: 1

ATTTCATAGG
switch fluorescence ratio: 1.03

ACTTATTATC
switch fluorescence ratio: 1.02

GCCTATGTAG
switch fluorescence ratio: 1.01

TAATTAAGAA
switch fluorescence ratio: 1.02

ACTTCGATTT
switch fluorescence ratio: 1.17

GAATTTCCGG
switch fluorescence ratio: 1.05

AAGTCTACGT
switch fluorescence ratio: 1.03

TTATTTGCGA
switch fluorescence ratio: 1.06

ACCCTGTGAT
switch fluorescence ratio: 0.983

TTGCGTGTTT
switch fluorescence ratio: 0.99

CAGGCATCTG
switch fluorescence ratio: 1.03

GCGATGAAGT
switch fluorescence ratio: 0.991

CCGTTAGACT
switch fluorescence ratio: 1.83

ACTTAGTGGA
switch fluorescence ratio: 1.01

AGAAGCTGGT
switch fluorescence ratio: 1.07

TGGGGCTCCC
switch fluorescence ratio: 1.02

CCCAGCGGGC
switch fluorescence ratio: 1.17

TAGTCCTGC
switch fluorescence ratio: 1.05

TACAGTTTTC
switch fluorescence ratio: 1.01

TATAAGATTG
switch fluorescence ratio: 1.03

AAACTTGCGG
switch fluorescence ratio: 1.05

ATGGAATGTC
switch fluorescence ratio: 0.968

TCCGAACAAG
switch fluorescence ratio: 1.69

TGGATGCAA
switch fluorescence ratio: 2.58

CTCAACCATC
switch fluorescence ratio: 1.06

GCGGATGCAG
switch fluorescence ratio: 0.925

GCTTACGGCG
switch fluorescence ratio: 0.975

TTGCCGCGAA
switch fluorescence ratio: 1.35

TTTCTATTA
switch fluorescence ratio: 1.03

TTTATGCTAA
switch fluorescence ratio: 0.996

GAAAAATACT
switch fluorescence ratio: 0.997

GTGGCCTCCG
switch fluorescence ratio: 1.16

GGACTGTACG
switch fluorescence ratio: 1.18

TTACTATGT
switch fluorescence ratio: 1.02

TTCGCACAAT
switch fluorescence ratio: 1.17

CTACAAGTAT
switch fluorescence ratio: 0.97

GTATTCTGGT
switch fluorescence ratio: 0.998

CGAGAGCCCC
switch fluorescence ratio: 1

CTTAATCGTG
switch fluorescence ratio: 0.978

ACGACCGCTA
switch fluorescence ratio: 2.73

GTGGCAGGCC
switch fluorescence ratio: 0.963

TGCTCAACTC
switch fluorescence ratio: 1.02

TTTATTGC
switch fluorescence ratio: 1.02

CATGTATAAT
switch fluorescence ratio: 0.954

GCCTAATACA
switch fluorescence ratio: 1.02

CTTCCAACGG
switch fluorescence ratio: 1.36

CATGTGCTCT
switch fluorescence ratio: 1

GCAGTACTTG
switch fluorescence ratio: 1.28

ACTCCGGCAG
switch fluorescence ratio: 4.12

ATCTAGCTAG
switch fluorescence ratio: 0.978

TGCTATTCGA
switch fluorescence ratio: 1.01

GCATGTACGG
switch fluorescence ratio: 1.1

TGCATTGT
switch fluorescence ratio: 1.01

GAGAAGTGTT
switch fluorescence ratio: 0.967

GAGCCGCAAC
switch fluorescence ratio: 4.48

ACAGTGACAC
switch fluorescence ratio: 1.06

TTTTTAG
switch fluorescence ratio: 1.01

CTAATTACGA
switch fluorescence ratio: 1

TAAATTCAGC
switch fluorescence ratio: 1

CAGTATGGC
switch fluorescence ratio: 1.03

ACTTAGGATG
switch fluorescence ratio: 1.06

CTAGATTGCA
switch fluorescence ratio: 1.05

AGAGATAATC
switch fluorescence ratio: 1.02

TTCGGAAT
switch fluorescence ratio: 1.05

GATAAGGCTG
switch fluorescence ratio: 1.01

CGAGGGAGGA
switch fluorescence ratio: 1.03

TTTCGCGCGT
switch fluorescence ratio: 1.25

TCCATGGGCT
switch fluorescence ratio: 1.02

TTGCGGCTCA
switch fluorescence ratio: 1.07

GAATGGTGTG
switch fluorescence ratio: 1.01

GATGAATGAA
switch fluorescence ratio: 0.996

ATTATGCGC
switch fluorescence ratio: 0.99

GTTCTTGCTG
switch fluorescence ratio: 0.987

TCAGCAAGTA
switch fluorescence ratio: 1.05

TCCGCTGTTT
switch fluorescence ratio: 1.27

TTACAGGGTC
switch fluorescence ratio: 0.974

ATGTACAGAC
switch fluorescence ratio: 1.24

GATGCCCAG
switch fluorescence ratio: 0.971

CACTCAGGAT
switch fluorescence ratio: 1.04

CCCTGGGCCC
switch fluorescence ratio: 1.02

ACGTCTGGCG
switch fluorescence ratio: 0.967

CCAAATCCCA
switch fluorescence ratio: 0.976

TCAGGCAATA
switch fluorescence ratio: 4.01

TCTCATCAAT
switch fluorescence ratio: 1.46

AATTTGGCTA
switch fluorescence ratio: 1.05

AGTAAATACT
switch fluorescence ratio: 1.31

TCGAAACTA
switch fluorescence ratio: 0.988

AGTGAGATG
switch fluorescence ratio: 1

TTTTAATCAC
switch fluorescence ratio: 1

CGGTTCTAGG
switch fluorescence ratio: 0.997

TAGTTAGTTA
switch fluorescence ratio: 0.991

CTTGCGGCAC
switch fluorescence ratio: 1.42

ATAGTAATTG
switch fluorescence ratio: 0.995

AAGGCAATTG
switch fluorescence ratio: 1.03

ATGCTTGCAG
switch fluorescence ratio: 0.998

TGGCAGGGAG
switch fluorescence ratio: 1

CGCCGGTACT
switch fluorescence ratio: 1.16

GTGGATTGGG
switch fluorescence ratio: 0.992

AAGGTAT
switch fluorescence ratio: 0.988

ATGTCAGACG
switch fluorescence ratio: 1.02

TGTTGGGTCC
switch fluorescence ratio: 1.02

CACAGTTTCG
switch fluorescence ratio: 1.02

TTGGTCAGAG
switch fluorescence ratio: 1.04

AGTGTCTTTT
switch fluorescence ratio: 0.941

TTCGATAGA
switch fluorescence ratio: 1.01

GCTGCCTACT
switch fluorescence ratio: 1.01

Source: the supplement of paper PMC10126150
